# PubChem BioAssay AID488969 (Vanderbilt High Throughput Screening Facility, 2010)
# Over roughly 110,000 compounds, “z-score” has its median near -0.1; the highest 2% begin near 2. The list shows a part of the results.
# Target: Metabotropic glutamate receptor 8 (Rattus norvegicus) (UniProt P70579)
# Assay: rat mGluR8 modulators via GIRK flux, primary screen, cell-based, thallium flux, HTS (AID 488969)
# Conditions: HEK293 rat mGluR8, GIRK (G protein-gated inwardly rectifying potassium channel) thallium flux, FluoZin2; at 10 µM; stronger effect = higher value; submaximal glutamate (EC20) added with thallium
# Chain of UniProt P70579 (P70579 whole entry, looked up): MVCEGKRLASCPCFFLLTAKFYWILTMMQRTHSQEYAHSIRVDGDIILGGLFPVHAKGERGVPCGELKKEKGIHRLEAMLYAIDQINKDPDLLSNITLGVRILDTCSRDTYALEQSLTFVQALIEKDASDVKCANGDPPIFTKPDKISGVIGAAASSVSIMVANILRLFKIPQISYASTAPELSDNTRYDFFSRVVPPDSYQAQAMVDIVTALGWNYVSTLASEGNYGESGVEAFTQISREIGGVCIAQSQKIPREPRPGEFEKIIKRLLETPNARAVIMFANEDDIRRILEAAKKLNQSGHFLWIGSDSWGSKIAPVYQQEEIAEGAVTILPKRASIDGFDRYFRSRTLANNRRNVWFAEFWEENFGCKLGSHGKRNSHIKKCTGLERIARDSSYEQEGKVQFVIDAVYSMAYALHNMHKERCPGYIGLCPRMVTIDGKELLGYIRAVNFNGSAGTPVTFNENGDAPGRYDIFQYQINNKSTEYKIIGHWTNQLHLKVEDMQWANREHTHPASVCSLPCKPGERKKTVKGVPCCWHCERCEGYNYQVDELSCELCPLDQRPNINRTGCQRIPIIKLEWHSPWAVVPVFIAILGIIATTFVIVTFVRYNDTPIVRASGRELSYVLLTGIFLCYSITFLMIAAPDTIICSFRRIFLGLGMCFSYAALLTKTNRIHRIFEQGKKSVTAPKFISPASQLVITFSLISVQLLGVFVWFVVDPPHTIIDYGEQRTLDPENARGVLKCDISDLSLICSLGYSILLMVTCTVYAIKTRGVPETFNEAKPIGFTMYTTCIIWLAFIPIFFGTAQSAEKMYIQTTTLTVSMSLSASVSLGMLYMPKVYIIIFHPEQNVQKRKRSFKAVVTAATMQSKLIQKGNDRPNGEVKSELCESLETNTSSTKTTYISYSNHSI
row,SMILES,z-score
1,NC(=O)c1nn(-c2ccccc2)nc1NC(=O)Cn1nnc(-c2ccccc2)n1,0.0782
2,COc1cc(SC#N)ccc1N=Cc1c(C)[nH]n(-c2cccc3ccccc23)c1=O,-0.32
3,Cc1cc(C)nc(SCC(=O)N/N=C/c2cccc([N+](=O)[O-])c2)n1,-0.235
4,CCOc1ccccc1N(CC(=O)O)S(=O)(=O)c1ccc(C)cc1,-0.137
5,Cc1cccc(NC(=O)CC2NC3CCCCC3NC2=O)c1 (stereo unspecified),-0.174
6,O=C(NC1CCCC1)C(c1ccccc1)N(Cc1ccco1)C(=O)Cc1cccs1 (stereo unspecified),-1.45
7,COC(=O)c1c(C)noc1-c1cc(C)on1,-0.229
8,CCOP(=O)(OCC)C(NC(=O)C(F)(F)F)c1ccccc1 (stereo unspecified),-0.0338
9,Cc1ccc(-c2ccc(=O)n(CCC(=O)NCCN3CCCCC3C)n2)cc1 (stereo unspecified),-0.33
10,C=CCn1c(SCC(=O)c2ccc(CNC(C)=O)o2)nc2scc(C3CC3)c2c1=O,-0.393
11,O=C(Nc1nnc(-c2ccncc2)s1)C1CCCO1 (stereo unspecified),0.264
12,Oc1ccccc1NCC(O)Cn1ccc2ccccc21 (stereo unspecified),-0.42
13,CN(C)c1nc(N)nc(Nc2ccccc2C#N)n1,-0.0953
14,O=[N+]([O-])c1ccc(NCCNc2ccc(Cl)nn2)cc1,-0.0551
15,CC(C)C(NC(=O)C1CCCCC1)C(=O)Nc1ccccn1 (stereo unspecified),-0.198
16,COc1ccc(C(=O)Nc2sc(C)c(C)c2CN2CC(C)OC(C)C2)cc1 (stereo unspecified),1.5
17,CCOC(=O)COc1ccc(S(=O)(=O)Nc2ccc3c(c2)OCCO3)cc1,0.286
18,Cc1cc(C)n(C(=O)CCC(=O)Nc2ccc(C)c(C)c2)n1,-0.0686
19,CCCC(=O)Nc1cc(OC)c(OC)cc1C(=O)O,-0.294

row,SMILES,z-score
1,Cn1nnc2sc3c(c2c1=O)CCCC3,-0.875
2,Cc1nn(C(C)(C)C)c(OC(=O)c2cccs2)c1S(=O)(=O)c1ccccc1,-0.214
3,CN(C(=O)c1coc(=O)c2ccccc12)c1ccc(F)cc1,-0.51
4,CCOC(=O)c1ccccc1NC(=O)c1ccc(NS(C)(=O)=O)cc1,-0.284
5,OCCNc1nc2ccccc2n1-c1ccccc1,-0.0406
6,Cc1nnsc1C(=O)Nc1cc(Cl)ccc1Cl,-0.131
7,COc1ccc2nc(/N=C(\N)NC(=O)C(C)(C)C)nc(C)c2c1,-0.613
8,CCOCCCNc1nc2c(c(=O)[nH]c(=O)n2C)n1CCCc1ccccc1,-0.17
9,O=S(=O)(c1ccccc1Cl)N1CCCC(c2nc(-c3cccnc3)no2)C1 (stereo unspecified),2.62
10,O=C(c1nn(Cc2ccccc2)c(=O)c2ccccc12)N1CCc2ccccc2C1,-0.399
11,Cn1c(Cn2c(C(F)(F)F)nc3ccccc32)nc2ccccc21,-0.47
12,CN(C)C(/C=C/Nc1ccc(C#N)cc1)=C(C#N)C#N,-0.302
13,COc1cccc(/C(O)=C2/C(=O)C(=O)N(Cc3ccco3)C2c2ccncc2)c1 (stereo unspecified),-0.192
14,CC(C)NS(=O)(=O)c1ccc(OCC(=O)NCc2ccc3c(c2)OCO3)c(Cl)c1,-0.238
15,COc1cc(S(=O)(=O)N2CCN(C)CC2)c(OC)cc1Cl,-0.0772
16,Cc1ccc(NC(=O)COc2ccc(/C=N/NC(=O)CSCc3ccccc3)cc2)cc1,-0.271
17,COc1nc(N)nc(NC23CC4CC(CC(C4)C2)C3)n1,0.314
18,O=C(NC1CCCCC1)C(c1ccccc1)N(C(=O)c1cccs1)c1ccc2c(c1)OCO2 (stereo unspecified),0.0371
19,CC(C)COC(=O)/C(C#N)=C/c1c[nH]c2ccccc12,-1.39

row,SMILES,z-score
1,COc1cccc(N2CC(C(=O)Nc3c(C)cccc3C)CC2=O)c1 (stereo unspecified),0.534
2,O=C(NCC(c1cccs1)N1CCOCC1)c1cccc([N+](=O)[O-])c1 (stereo unspecified),-0.213
3,COc1ccc(-c2csc3nc(C)n(-n4cccc4)c(=O)c23)cc1OC,0.0148
4,Cc1ccc2c(c1)c1nnc(SCC(=O)N3CCN(c4ccc(F)cc4)CC3)nc1n2CC(=O)O,0.0915
5,COC(=O)c1ccc(C2C(C(=O)c3cc4ccccc4o3)=C(O)C(=O)N2CCCN(C)C)cc1 (stereo unspecified),-1.1
6,CN(c1ccc(F)cc1)S(=O)(=O)c1ccc(Cl)c(C(=O)Nc2ccc3c(c2)CCC3)c1,-0.177
7,O=C(O)c1ccc(N2CCCCCC2)c(N2C(=O)c3ccccc3C2=O)c1,-0.96
8,CC(C)(C)CNC(CO)C12CC3CC(CC(C3)C1)C2 (stereo unspecified),0.704
9,Cc1cccc(N2CCN(C(=O)COc3cc(=O)n(C)c4ccccc34)CC2)c1C,0.279
10,CCC(C)NCc1ccc(C(=O)OC)o1 (stereo unspecified),0.164
11,COc1ccc(-c2nc3cc(NC(=O)Cc4ccc(OC)c(OC)c4)ccc3o2)cc1,1.14
12,Cc1cccc(C(=O)N2CCN(c3ccc([N+](=O)[O-])c(N4CCOCC4)c3)CC2)c1,-0.208
13,CC(=O)Nc1ccc(OC(=O)c2cccs2)cc1,-0.00659
14,O=C1CCCN1CCCNS(=O)(=O)c1ccc(Cl)c(C(=O)N2CCOCC2)c1,0.0385
15,O=C(COc1ccc(/C=N/NS(=O)(=O)c2ccccc2)cc1)Nc1ccc(F)cc1,-0.259
16,CC1CCN(S(=O)(=O)c2ccc(C(=O)Nc3sccc3C(N)=O)cc2)CC1,0.515
17,COc1ccc(-c2cc(=O)oc3cc4occ(C)c4cc23)cc1,-0.189
18,Cc1ccc(C)c(NC(=O)C(OC(=O)c2ccc(C)s2)c2ccccc2)c1 (stereo unspecified),-0.248
